# Assay results reported in PubChem BioAssay AID624296 (National Center for Advancing Translational Sciences (NCATS), 2012).
# Where “and” joins values, the source holds several entries; their conditions need not be identical. Identical values can stand only once. Screen size: about 350,000 compounds; about 9,900 (2.8%) were called active. Inconclusive results, whose numbers are uncertain, are shown with a selection of clear calls. The call rests on the fitted dose curve; in most records, active means well fitted activation curve with a large enough effect; inconclusive means small, poorly fitted or top-dose-only effect; inactive means no such curve, though single readings can be large or run the other way. Potencies of inconclusive entries are doubtful fits and often do not repeat.
# Test: A quantitative high throughput screen for small molecules that induce DNA re-replication in MCF 10a normal breast cells. Further: nearly all actives have a fitted effect of over 50% in size.
# Conditions: MCF 10A DNA re-replication, Hoechst nuclear intensity, 48 h; series mostly up to 46.1 µM
# Potency means the concentration at half of the fitted maximal effect; tags describe the fitted curve by direction and shape.
row,SMILES,Potency
1,COc1ccc(Cl)cc1C=CC=Nc1ccccc1O,"inconclusive: 20.6 µM [activator, single point]"
2,C=CCC(CC(O)COCCC)C(=O)NNC(=S)Nc1ccccc1 (configuration not stated),inactive
3,CCC(=O)Oc1ccc(C2NC(=O)c3ccccc3O2)cc1OC (configuration not stated),"inconclusive: 5.17 µM [activator, partial curve, poor fit]"
4,COc1ccc(CNC(=O)N2CCN(c3ccc(F)cc3)CC2)cc1Cl,"inconclusive: 32.6 µM [activator, partial curve, poor fit]"
5,CC(=O)Oc1cccc(C(=O)Nc2ccc(NC(=O)c3cccs3)cc2)c1,inactive
6,O=C(CCN1C(=O)/C(=C/c2ccccc2)SC1=S)NNC(=O)c1cccnc1,inactive
7,C=CCC[C@@H](Cc1ccc(F)cc1)C(=O)OC[C@@H](Cc1c[nH]c2ccccc12)NC(=O)[C@@H](CC=C)CC(=O)N[C@H](CO)Cc1ccccc1,inactive
8,CCOC(=O)c1c(-c2ncc(C(F)(F)F)cc2Cl)noc1C,inactive
9,CC(=O)c1cccc(NC(=O)c2noc3c2CCc2ccccc2-3)c1,"inconclusive: 16.4 µM [activator, partial curve]"
10,Cc1cccc(NCc2ccc([N+](=O)[O-])s2)c1,"inconclusive: 20.6 µM [activator, single point]"
11,Cc1noc(NS(=O)(=O)c2ccc(NC(=O)/C=C/c3ccccc3)cc2)c1C,inactive
12,CN(C)c1ccc(/C=N/N(Cc2ccccc2)c2ccccc2)cc1,inactive
13,Cc1cccc(C2CN(C)CCc3c2cc(O)c(O)c3Cl)c1 (configuration not stated),"inconclusive: 23.1 µM [activator, single point]"
14,Cc1ccc(S(=O)(=O)N2CCN(CCc3ccncc3)CC2)cc1,"inconclusive: 4.11 µM [activator, full curve, poor fit]"
15,Cc1cccc(NC(=O)CSCC(=O)OCc2ccccn2)c1,"inconclusive: 0.164 µM [activator, partial curve, poor fit]"
16,CC1CCN(c2ccc3c(c2)S(=O)(=O)c2cccc(C(=O)NCc4ccc(F)cc4)c2C3=O)CC1,"inconclusive: 5.8 µM [activator, single point]"
17,CCCCN(CCO)c1ncnc2sc(-c3ccccc3)cc12,"inconclusive: 29.1 µM [activator, single point]"
18,NC(=S)N/N=C/c1coc2c(ccc3ccccc32)c1=O,inactive
19,O=C(C#Cc1ccccc1)Nc1cccc(F)c1,"inconclusive: 23.1 µM [activator, single point]"
20,FC(F)(F)c1cnc(C(c2ccccn2)c2ncn[nH]2)c(Cl)c1 (configuration not stated),"inconclusive: 35.5 µM [activator, single point]"
21,Cc1ccccc1C(=O)OC(C)CN1CCN(C)CC1 (configuration not stated),"inconclusive: 20.6 µM [activator, partial curve, poor fit]"
22,COc1cc(CNn2nnnc2N)ccc1OCc1c(Cl)cccc1Cl,inactive
23,Cc1cccc(C)c1NC(=O)CN1CCN(CCCC(c2ccc(F)cc2)c2ccc(F)cc2)CC1,"inconclusive: 14.3 µM [activator, partial curve, poor fit] and inconclusive: 23.1 µM [activator, single point]"

row,SMILES,Potency
1,CS(=O)(=O)N1CCN(C(=O)CSc2ccccc2)CC1,"inconclusive: 6.51 µM [activator, single point]"
2,CC(C)CNS(=O)(=O)c1ccc(CCC(=O)Nc2cc(Cl)ccc2Oc2ccccc2)cc1,inactive
3,CC(C)N(CCCNC(=O)C1CCC(CNS(=O)(=O)c2ccccc2)CC1)Cc1ccccc1 (configuration not stated),"inconclusive: 14.6 µM [activator, partial curve]"
4,Cc1ccc(Nc2nc(-c3ccncc3)cs2)cc1,"inconclusive: 9.2 µM [activator, partial curve]"
5,CCc1ccc(CN(C)CC(=O)Nc2ccc3c(c2)CCC3)cc1,"inconclusive: 29.1 µM [activator, single point]"
6,O=C(Cn1cnc2ccccc2c1=O)N1CCN(c2ccc(F)cc2)CC1,"inconclusive: 6.51 µM [activator, single point]"
7,C=CCNC(=O)c1ccc(-c2nc3ccccc3nc2-c2ccccc2)cc1,"inconclusive: 29.1 µM [activator, partial curve, poor fit]"
8,O=C(NCc1ccccc1Cl)c1cccc(NC2=NC3CS(=O)(=O)CC3S2)c1 (configuration not stated),"inconclusive: 25.9 µM [activator, partial curve, poor fit]"
9,CCc1ccc(OCCOCC(O)CN2CCN(Cc3ccc(Cl)cc3)CC2)cc1 (configuration not stated),active: 14.6 µM
10,CCOC(=O)C1CCCN(CC(=O)Nc2nc(-c3ccccc3)cs2)C1 (configuration not stated),"inconclusive: 20.6 µM [activator, single point]"
11,COc1cccc(CN(C)C(=O)c2cc(-c3cccs3)nc3ccccc23)c1,"inconclusive: 18.4 µM [activator, single point]"
12,COc1ccc(NC(=O)CSc2ccc3c(c2)OCCO3)cc1S(N)(=O)=O,inactive
13,COc1ccc(C)cc1Nc1cc(C)nc2ncnn12,"inconclusive: 29.1 µM [activator, single point]"
14,O=C(c1ccco1)N1CCCN(C(=O)c2ccco2)CC1,inactive
15,COc1ccc(S(=O)(=O)Nc2ccccc2Cl)cc1NC(C)=O,"inconclusive: 16.4 µM [activator, partial curve, poor fit]"
16,Cc1ccc([N+](=O)[O-])cc1S(=O)(=O)N(C(=O)c1ccncc1)c1ccc2oc3c(c2c1)CCCC3,"inconclusive: 2.06 µM [activator, partial curve, poor fit]"
17,Cc1c(C(=O)N(CCc2ccccc2)Cc2ccccc2)cccc1[N+](=O)[O-],"inconclusive: 0.116 µM [activator, full curve, poor fit]"
18,CC(C)(C)c1cc(NC(=O)c2cccs2)no1,inactive
19,NS(=O)(=O)c1ccc(NC(=O)/C=C/c2ccc(S(=O)(=O)NCc3ccco3)cc2)cc1,inactive
20,CS(=O)(=O)N(CC(=O)Nc1cccc([N+](=O)[O-])c1)c1ccccc1,inactive
21,CN(C)S(=O)(=O)c1ccc(C(=O)OCC2COC(C)(C)O2)cc1 (configuration not stated),"inconclusive: 18.4 µM [activator, single point]"
22,Cn1ccnc1C(=O)c1ccc(NN)c([N+](=O)[O-])c1,"inconclusive: 29.1 µM [activator, single point]"
23,Nn1c(Cc2ccccc2)n[nH]c1=S,inactive

row,SMILES,Potency
1,CCCc1ccc2oc(C(=O)N3CCN(CC(=O)NC(C)C)CC3)c(C)c2c1,"inconclusive: 32.6 µM [activator, single point]"
2,CN(C(=O)Cn1cc(C(F)(F)F)cc(Cl)c1=O)C1CCS(=O)(=O)C1 (configuration not stated),inactive
3,CCOC(=O)C1CCN(Cc2cccc(OCc3ccccc3)c2)CC1,inactive
4,CCN1C[C@@H]2[C@@H]3C(=O)N(Cc4ccccc4)C(=O)[C@@H]3[C@](Cc3ccccc3)(C1=O)N2C(=O)c1ccc(C(C)(C)C)cc1,inactive
5,COc1ccccc1-c1cccc([C@@H]2C[C@H]3[C@H](CON3C)CN2S(=O)(=O)c2ccccc2C)c1,"inconclusive: 8.2 µM [activator, partial curve, poor fit]"
6,CC(=O)c1c(C)[nH]c(C(=O)CSc2ccc(F)cc2)c1C,inactive
7,COc1ccc(CN(C(=O)c2ccc3c(c2)OCCO3)C(C(=O)NC2CCCCC2)c2ccc3ncccc3c2)cc1 (configuration not stated),active: 13 µM
8,CCOC(=O)C1CCN(C2=NC(=O)/C(=C/c3ccc(O)cc3)S2)CC1,inactive
9,Cc1ccc(CN2CCN(/N=C/c3cc([N+](=O)[O-])ccc3Cl)CC2)cc1,"inconclusive: 23.1 µM [activator, partial curve, poor fit]"
10,COc1ccc(NS(=O)(=O)c2ccc(NC(=O)c3ccc(N(C)S(C)(=O)=O)cc3)cc2)cc1,"inconclusive: 2.91 µM [activator, full curve, poor fit]"
11,Cc1cc(/C=C2/NC(=O)NC2=O)c(C)n1-c1cccnc1,"inconclusive: 29.1 µM [activator, single point]"
12,CC1(C)CC(=O)C2=C(C1)OC1=C(C(=O)CC(C)(C)C1)C2c1ccccc1,inactive
13,CCOc1cc(C(=O)NC(CC(=O)O)c2ccc(OC3CCCC3)cc2)cc(OCC)c1OCC (configuration not stated),inactive
14,COc1ccc(Nc2oc(-c3ccc(F)cc3)nc2C#N)cc1,"inconclusive: 16.4 µM [activator, single point]"
15,Cc1ccc(C)c(Cn2c(O)c(N=NC(=S)Nc3ccccc3F)c3ccccc32)c1,"inconclusive: 16.4 µM [activator, partial curve]"
16,O=C(NCC(=O)N1CC(O)CC1C(=O)N1CC(O)CC1C(=O)OCc1ccccc1)OCc1ccccc1 (configuration not stated),"inconclusive: 6.51 µM [activator, single point]"
17,COc1ccc(NC(=O)CSc2nnc3c4c(nc(-c5ccccc5)n23)CC(C)(C)OC4)cc1,inactive
18,COc1ccc(OC)c(NC(=O)c2cccc3c2C(=O)N(C2CCCCC2)C3)c1,"inconclusive: 25.9 µM [activator, single point]"
19,CC(C)(CC(=O)O)CC(=O)Nc1ccc(Oc2ccc(C(C)(C)C)cc2)nc1,"inconclusive: 14.6 µM [activator, partial curve, poor fit]"
20,COc1ccc(C2/C=C\CN(S(=O)(=O)c3ccc(-c4ccccc4)cc3)CC(=O)N2Cc2ccc(F)cc2)cc1 (configuration not stated),"inconclusive: 16.4 µM [activator, single point]"
21,CC(=O)Nc1nc(-c2ccc(Cl)cc2)ns1,"inconclusive: 23.1 µM [activator, partial curve, poor fit]"
